Source: US8999921B2, “Process for diagnosing rheumatic diseases” (Cypress Bioscience, Inc., priority 2005, dated 2015)

Test system: autoantibodies to mutated vimentin
Assay: Indirect enzyme immunoassay (ELISA) with mutated vimentin as detection antigen
Assay type: binding, human
Conditions: diluted 1:100
Experimental: A recombinant, mutated variant of native vimentin of Example 1 (SEQ 9) was expressed in E. coli and purified by means of affinity chromatography using the His-tag. A 2 mg/ml solution of the purified protein was pretreated with unfolding buffer (50 mM Tris, 2 M guanidine hydrochloride, 5 mM CaCl2, 2 mM DTT, 0.5 mM EDTA, 5 mM methylammonium chloride, pH 7.4), and for at least 14 hours at 4° C., and subsequently diluted 1:1000 in PBS. 100 μl of this solution were introduced to the cavities of a microtiter plate (manufacturer: COSTAR) at 4° C. overnight. Unbound polypeptide was removed by washing three times (175 μl, buffer PBS/0.05% TWEEN). Potentially unspecific crossreactions were blocked by incubating the cavities with 150 μl of a 3% bovine serum albumin (BSA) solution in PBS. The blocked, emptied plate was dried at 37° C. for 30 min and stored at 4′ under desiccating conditions.
Microtiter plates prepared in this way were employed in quantitative detection of autoantibodies to mutated vimentin according to the principle of the indirect enzyme immunoassay. Detection of autoantibodies to CCP (citrullinated peptide) was carried out for comparison. For this purpose, samples of sera of healthy volunteers and/or patients having different diseases were diluted 1:100 with 1% BSA/PBS and incubated in the cavities for 30 minutes. Unbound serum antibodies are removed by repeatedly washing with PBS/0.05% TWEEN. Subsequently, enzyme-labeled detection antibodies (in particular peroxidase-conjugated anti-human IgG antibodies, 1:10 000 dilution) were incubated for 15 minutes.
After washing off the excess detection antibody, 100 μl of a substrate solution (TMB (3,3′,5,5′-tetramethylbenzidine) tablet, dissolved in 10 ml of 0.05 M phosphate-citrate buffer, with 8 ml of hydrogen peroxide being added shortly before use) were added for 15 minutes. Addition of 100 μl of 1 M HCl stopped the reaction, with the reaction product turning yellow. The intensity of the yellow stain was determined photometrically at 450 nm, with absorption being directly proportional to the autoantibody concentration searched for.

B1: Mutated vimentin: recombinant, mutated variant of native vimentin (SEQ 9) expressed in E. coli, His-tag purified (protein)
chain: MSTRSVSSSSYRRMFRGTGTASRTSSSRSYVTTSTRTYSLRSALRTSTSRSLYYSSPGRVYATRSSYVRLRSSVTRVSLLQDSVDFSLADAINTEFKNTRTNEKVELQELNDRFANYIDKVRFLEQQNKILLAELEQLKGQGKSRLGDLYEEEMRELRRQVDQLTNDKARVEVERDNLAEDIMRLREKLQEEMLQREEAENTLQSFRQDVDNASLARLDLERKVESLQEEIAFLKKLHEEEIQELQAQIQEQHVQIDVDVSKPDLTAALRDVRQQYESVAAKNLQEAEEWYKSKFADLSEAANRNNDALRQAKQESTEYRRQVQSLTCEVDALKGTNESLERQMREMEENFAVEAANYQDTIGRLQDEIQNMKEEMARHLREYQDLLNVKMALDIEIATYRKLLEGEESRISLPLPNFSSLNLRETNLDSLPLVDTHSKRTLLIKTVETRDGQVINETSQHHDDLE
modifications: His-tag
- Mutated vimentin OD at 450 nm (serum number 1, Normal serum): 0.127
- Mutated vimentin OD at 450 nm (serum number 2, Blood donor): 0.089
- Mutated vimentin OD at 450 nm (serum number 3, Hepatitis): 0.107
- Mutated vimentin OD at 450 nm (serum number 4, Borrelia arthritis): 0.167
- Mutated vimentin OD at 450 nm (serum number 5, Rheumatoid arthritis): 0.784
- Mutated vimentin OD at 450 nm (serum number 6, Rheumatoid arthritis): 0.984
- Mutated vimentin OD at 450 nm (serum number 7, Rheumatoid arthritis): 2.456
- Mutated vimentin OD at 450 nm (serum number 8, Rheumatoid arthritis): 1.709
- Mutated vimentin OD at 450 nm (serum number 9, Rheumatoid arthritis): 1.342
